# ± gives the standard deviation of the averaged measurements. This is one part of the list.
# Tested on: PfAP2-EXP AP2 domain (GST-tagged)
# Assay: gcPBM binding intensity (ln(normalized median fluorescence intensity)); higher = stronger DNA binding
# Procedure, shortened: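 Binding of GST-tagged P. falciparum DNA-binding domains, expressed in E. coli and used at about 25 μg on average, was carried out for 1 h in 1× PBS containing 1% milk, 0.2 mg/ml BSA, 0.5% salmon testes DNA and 0.03% Triton X-100. The target was an Agilent 4 × 180k array of primer-extended double-stranded 36-bp intergenic genomic probes plus negative controls, read with Alexa488 anti-GST antibody at 488 nm. Binding intensity is the highest Masliner-normalised natural-log median intensity across replicate spots of either probe orientation.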
row,Sequence,gcPBM binding intensity (ln)
1,TTTTTTTTTTTCAATAGTACTTTCCATTTACATATA [XGTACX_site3889],8.66 ± 0.49
2,AAATATATATAAAACTCACACATTATCTTATAACCA [CACACA_site5268],8.29 ± 0.37
3,TTTAATAAAAAAATTAAAAATAAAGAAAAAAAAAAA [CACACA_negctrl_site1464],8.44 ± 0.32
4,GCGTAATCTATTTGCACACTTATTTGTTCTTAAAAA [CACACA_site672],9.02 ± 0.35
5,TTAAATAAATATAAGTGTACATACACACTTTACAAT [XGTACX_site6348],8.4 ± 0.16
6,GCATATGTTCAGCGTTGTACATAAAAAAAAACATAT [XGTACX_site5974],8.92 ± 0.62
7,TATGTGTATACAATATGTACATATGTTAACTTGTAT [XGTACX_site872],8.76 ± 0.4
8,ATGTATGGAAATTTTACACACAAGAGTAGTTTAAAA [CACACA_site1710],8.39 ± 0.36
9,AAAAAATAATATTGTACACACATAAATTCTTTGTCA [CACACA_site5187],8.27 ± 0.42
10,TGAGATAACAAAAGTTGTACTTTTTTTTTTTTTTTT [XGTACX_site3004],8.585 ± 0.035
11,TTTTGAAAGTTTTTGTGTCCACATATATTTATATAT [XGTACX_site6563],8.5 ± 0.45
12,TTTATTTATTACTAAAGTACTAAATCATATAATTAT [XGTACX_site3654],8.16 ± 0.38
13,GTTTAAAGTTGAACAAGTACACATTTATATAAGGCA [XGTACX_site351],8.67 ± 0.3
14,ATAAAAAACAGTGGCACACATTATGTATCCACCTTT [CACACA_site5958],8.29 ± 0.092
15,ATGCATATAATTATATGTACATATAAGAAATATATA [XGTACX_site517],8.71 ± 0.37
16,CATTTATTATGATAAAGTACTTAAATTAATAGATAA [XGTACX_site3566],8.35 ± 0.36
17,TAGTGTATGATAATATGTACATACATTTATATAATA [XGTACX_site6330],8.59 ± 0.35
18,TATGCACACAATATATGTACTTATATATTTTAAAAA [XGTACX_site5482],8.62 ± 0.31
19,TTTTATAAAAAAACTATAAAAATATATAGTACTTAA [CACACA_negctrl_site440],8.16 ± 0.3

row,Sequence,gcPBM binding intensity (ln)
1,TCTTTTTTTTTTTTTTTTTCTTCTTCTCAATATAAA [GTGCAC_negctrl_site303],8.47 ± 0.43
2,CATAATATGTGGACTTTACACACTTGTTTTAAAATT [CACACA_site819],8.39 ± 0.33
3,AATAATAAAAAATACACACACATATAAATATATTAC [CACACA_site7597],8.63 ± 0.75
4,CATATAAAGATATGAACACACAAAAAGAATATTTCC [CACACA_site6811],8.68 ± 0.4
5,TTCCGAACGACCTAAAGTACATGTATTTCAACTTTT [XGTACX_site1220],8.7 ± 0.45
6,AGGACACATATATGCAAAAAAAAAAAAAAAAAAAAA [TGCATGCA_negctrl_site427],8.14 ± 0.4
7,ATTATATTAATATATATATATATATATATAATAATA [CACACA_negctrl_site437],8.31 ± 0.27
8,TTTTTTTCTCTTTTTATTACAAAAAGGGTTTATATA [TGCATGCA_negctrl_site75],8.33 ± 0.44
9,ATGAAAAAATTTAAATGTACATTACATATATTTATT [XGTACX_site2524],8.28 ± 0.38
10,TAATATTATATTATATGTACATAACAAATTATATTT [XGTACX_site4296],8.6 ± 0.21
11,AAAAAAAATTCCAGTACACACAATAATACTAAAAAT [CACACA_site2801],8.65 ± 0.35
12,AAAAATTACAAAAATGCATGTACTATTCATATTTTT [TGCATGCA_site918],8.6 ± 0.38
13,ATGAGTAACATATTTGTGCACATATGGTTATTTTTA [GTGCAC_site9541],8.665 ± 0.078
14,TATATATATATATATTTTTTTTTTTTATGCACATGG [CACACA_negctrl_site1573],10.1 ± 0.36
15,TTTTTTTTTTTGAAATGTACATTCCAAAAACTGATA [XGTACX_site1495],8.53 ± 0.49
16,CTTTTGAACAGTTCATGTACTCAATTTTTTAATAGT [XGTACX_site6498],8.45 ± 0.33
17,TAATACCTATGGTATAGTACGTATTATTTTATAGAG [XGTACX_site2078],8.49 ± 0.5
18,TATTTTTATTGGTACTGTACCTATTTAGAAATACAT [XGTACX_site6663],8.61 ± 0.35
19,ATGATTTCATTTGAGAGTACGTAAAAATAATACGTA [XGTACX_site4958],8.26 ± 0.29

row,Sequence,gcPBM binding intensity (ln)
1,TAATACAAAAACAATGTTCTTTCAAACATAAACATA [CACACA_negctrl_site1628],8.25 ± 0.37
2,TTTGCCATATGACACACACACATGTAAACCCCCTTT [CACACA_site6873],9.41 ± 0.45
3,TATTTATAAAAAAATACATGCATTTTTTTTTTTTTT [TGCATGCA_site65],8.62 ± 0.21
4,TGTTAATTCTTAAGAATTTCCATAATTTCTTCTTTT [CACACA_negctrl_site1065],8.48 ± 0.43
5,TGGAATAATCCGCGTACACACATATATATATTAAGA [CACACA_site4253],8.87 ± 0.28
6,TTATATTCTAGAGACACATGCGATTTTTTATTTTAT [TGCATGCA_site649],8.53 ± 0.33
7,AATTAACCCTAATTTTGTACATATTCCTTTTCTCAT [XGTACX_site46],8.9 ± 0.55
8,AATAAAAATAGGAATACGCACACGATGATTAATTTA [CACACA_site1836],8.53 ± 0.36
9,TATACCACACGATATACACACTTGTAGACATCTTTT [CACACA_site6232],8.57 ± 0.52
10,GTTACTATGATTAATGCATGCAAATACCAAAAAAAA [TGCATGCA_site590],10.16 ± 0.064
11,TAATACGAATGAGGCACACACCTAGTATACATGCTT [CACACA_site6438],8.44 ± 0.43
12,TCCCTTCATCTTTTATGTACTAAAAAATTGAATAAT [XGTACX_site2172],8.7 ± 0.38
13,AATTAAAATTTTTGAAGTACACTCAAAATAAGTTAT [XGTACX_site4490],8.51 ± 0.11
14,AATTAATGGCTAAAGGTGCACAATATATATATTACA,9.65 ± 0.33
15,AAAATAAAAAAAAACACACACATACAAGCATATATA [CACACA_site1585],8.66 ± 0.46
16,AAAAAAAAATTTAAGGGTACATACAAATATATATAT [XGTACX_site5078],9.34 ± 0.16
17,CCACATTAAAAAAAAACACACATATATTATATATAT [CACACA_site1155],8.74 ± 0.042
18,GTTACAGAGAATGTTGTGCACATATCAATAATATAT [GTGCAC_site9671],8.89 ± 0.11

# Source: the supplement of paper PMC11417369
